Data reported in PubChem BioAssay AID624417 (National Center for Advancing Translational Sciences (NCATS), 2012).
In all, about 410,000 compounds went through this assay and about 6,400 (1.6%) were called active. Inconclusive means that the source gave no clear call. Such entries were picked first, then a sample of the others. The call rests on the fitted dose curve; in most records, active means well fitted inhibition curve with a large enough effect; inconclusive means small, poorly fitted or top-dose-only effect; inactive means no such curve, though single readings can be large or run the other way. Potencies of inconclusive entries are left out as doubtful fits.

target: Glucagon-like peptide 1 receptor (Homo sapiens) (UniProt P43220); assay: qHTS of GLP-1 Receptor Inverse Agonists (Inhibition Mode); settings: HEK293 GLP-1R CRE-luciferase, luminescence, 24 h, GLP-1R form is constitutively active; activity change, negative = inhibition: at 38.3 µM (top of the series) unless noted; further: nearly all actives have a fitted effect of over 55% in size
Chain of UniProt P43220 (P43220 whole entry, looked up): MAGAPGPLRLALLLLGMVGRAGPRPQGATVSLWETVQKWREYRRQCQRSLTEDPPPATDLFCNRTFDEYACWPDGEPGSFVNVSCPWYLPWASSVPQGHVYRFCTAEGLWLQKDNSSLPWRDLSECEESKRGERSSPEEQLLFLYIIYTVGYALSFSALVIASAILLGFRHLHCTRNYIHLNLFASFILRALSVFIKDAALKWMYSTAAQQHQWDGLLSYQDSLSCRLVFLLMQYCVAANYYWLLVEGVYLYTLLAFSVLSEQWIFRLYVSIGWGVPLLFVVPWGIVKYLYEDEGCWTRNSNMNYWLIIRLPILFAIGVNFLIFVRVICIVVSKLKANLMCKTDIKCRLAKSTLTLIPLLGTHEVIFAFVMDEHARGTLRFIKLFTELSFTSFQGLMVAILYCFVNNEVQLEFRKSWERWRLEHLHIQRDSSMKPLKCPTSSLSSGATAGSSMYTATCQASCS
Procedure, shortened: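 Cells are plated, allowed 12 hours at 37 deg C, then treated with compounds for 24 hr before luciferase detection reagent is added and luminescence is read after 12 min at room temperature. The HEK293 line carries constitutively active GLP-1R with a cAMP-responsive reporter.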
On the % scale 0 is the no-effect control and ±100 the full control effect; potency means the concentration at half of the fitted maximal effect; tags describe the fitted curve by direction and shape.

| Compound | Potency | activity change, negative = inhibition |
| --- | --- | --- |
| CCc1cccc(NC(=O)Cc2nc(-c3ccc(OC)cc3)no2)c1 | inconclusive [inhibitor, single point] |  |
| CC(Cc1cccs1)N(Cc1ccc(Cl)cc1)C(=O)c1ccncc1 (centres undefined) | inconclusive [inhibitor, partial curve, poor fit] |  |
| CCN(CC)CCOC(=O)C(c1ccccc1)c1ccccc1 |  | inactive: -5.75% |
| Cc1ccccc1NC(=O)CN(C)S(=O)(=O)c1ccc2c(c1)n(C)c(=O)c(=O)n2C | inconclusive [inhibitor, single point] |  |
| CCCC(=O)c1ccc(N2CCN(C(=O)c3ccccc3Br)CC2)c(F)c1 | inconclusive [inhibitor, partial curve, poor fit] |  |
| Cc1cccc(C)c1NC(=O)C(C1CC1)n1c(=O)c(-c2ccccc2)nc2ccccc21 (centres undefined) | inconclusive [inhibitor, single point] |  |
| CCCCc1c(-c2ccccc2OC)ncn1CCc1cccc(Cl)c1 | inconclusive [inhibitor, single point] |  |
| CC1CCN(c2ccc3c(c2)S(=O)(=O)c2cccc(C(=O)NC[C@@H]4CCCO4)c2C3=O)CC1 |  | inactive: -19.3% |
| OC(CCN1CCCCC1)c1ccc(-c2ccccc2)cc1 (centres undefined) | inconclusive [inhibitor, partial curve] |  |
| CCN(CC)C(=O)Cn1c(=O)n(-c2ccccc2)c(=O)c2sccc21 |  | inactive: 18.6% |
| CCN(CC)c1ccc(C(=O)Nc2ccccc2)cc1[N+](=O)[O-] | inconclusive [inhibitor, partial curve, poor fit] |  |
| CCNC(=S)N/N=C(\C)c1ccc2c(c1)OCCO2 | inconclusive [inhibitor, partial curve, poor fit] |  |
| COc1ccc(CNC(=O)Cn2ncc3c(=O)oc4ccccc4c32)c(OC)c1 |  | inactive: 0% |
| CC1CCCCC1NC(=O)CCNS(=O)(=O)c1ccc(Cl)cc1 (centres undefined) | inconclusive [inhibitor, partial curve, poor fit] |  |
| COc1cccc(CC2(CO)CCCN(Cc3cn[nH]c3-c3ccccc3)C2)c1 (centres undefined) | inconclusive [inhibitor, partial curve, poor fit] |  |
| Cc1ccc(CNC(=O)CCSCc2cnn(-c3ccccc3)c2-n2cccc2)cc1 | inconclusive [inhibitor, partial curve, poor fit] |  |
| CCOC(=O)c1ccc(N=c2scc(C)n2CC)cc1 | inconclusive [inhibitor, single point] |  |
| CC(C)CNC(=O)c1ccc(COc2ccc(Cl)cc2Cl)o1 | inconclusive [inhibitor, partial curve, poor fit] |  |
| Cc1cccc(NNC(=O)C(=O)NNc2cccc(C)c2)c1 | inconclusive [inhibitor, full curve, poor fit] |  |
| COc1ccc2c(c1)CCc1c(C(=O)Nc3ccn(Cc4ccc(C)cc4)n3)noc1-2 |  | inactive: 0% |
| CCc1cc(C(=O)OC)c(NC(=O)c2ccoc2C)s1 |  | inactive: 7.43% |
| Nc1ccc2c3c(cccc13)CC2 |  | inconclusive: -32.2% [inhibitor] |
| CC1(CC(=O)N/N=C/c2cc(Br)c(O)cc2O)OCCO1 |  | inactive: 38.5% |
| CCCc1nc2ccccc2c(C(=O)OCc2nnc(-c3cc(OC)c(OC)c(OC)c3)o2)c1CC | inconclusive [inhibitor, single point] |  |
